This is an account of results in publication PMC12820563.

Some of the results follow. The list includes weakly bound sequences.

For this test, the target named is T1, MBP-FoxP3dN (UniProt Q99JB6).
T1 sequence: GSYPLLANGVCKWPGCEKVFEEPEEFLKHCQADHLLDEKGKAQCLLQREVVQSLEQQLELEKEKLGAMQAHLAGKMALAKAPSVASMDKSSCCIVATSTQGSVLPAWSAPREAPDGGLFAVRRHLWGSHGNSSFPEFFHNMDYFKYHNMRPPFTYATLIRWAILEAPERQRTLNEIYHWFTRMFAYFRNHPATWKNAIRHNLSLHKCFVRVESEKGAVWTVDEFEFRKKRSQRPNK
Nature of the test: PD-seq (MBP pull-down with sequencing). The settings on record: 20 mM Tris-HCl pH 7.5, 100 mM NaCl, 1.5 mM MgCl2, 0.4 uM protein, 0.1 uM dsDNA library, 30 min, room temperature, amylose pull-down; high values mean tight binding; double strand, one strand shown.
On to “GATGATTGTTCTCCCAGCTGATGAATTCTGAAAGTCGAGTAAACAAATTTTCCTAATCTTTCTGTTCAAGCGCCATCTAC”, for which the binding signal (RPM ratio (pull-down/input)) is 0.204.
To “GATGATTGTTCTCCCAGCTGATGAATTAAGGAGATCGAGTAAACAAATTTTCCTAATCTTTCTGTTCAAGCGCCATCTAC” belongs 0.249; to “GATGATTGTTCTCCCAGCTGATGAATTCAATAGATCGAGTAAACAAATTTTCCTAATCTTTCTGTTCAAGCGCCATCTAC”, 0.268; to “GATGATTGTTCTCCCAGCTGATGAATTACTGGGTTCGAGTAAACAAATTTTCCTAATCTTTCTGTTCAAGCGCCATCTAC”, 0.346.
With “GATGATTGTTCTCCCAGCTGATGAATTCGCCACATCGAGTAAACAAATTTTCCTAATCTTTCTGTTCAAGCGCCATCTAC” the figure was 1.75; with “GATGATTGTTCTCCCAGCTGATGAATTATGAGGTTCGAGTAAACAAATTTTCCTAATCTTTCTGTTCAAGCGCCATCTAC”, 0.544.
With “GATGATTGTTCTCCCAGCTGATGAATTGCGCGGCTCGAGTAAACAAATTTTCCTAATCTTTCTGTTCAAGCGCCATCTAC” the figure was 1.06; with “GATGATTGTTCTCCCAGCTGATGAATTGGGAAGATCGAGTAAACAAATTTTCCTAATCTTTCTGTTCAAGCGCCATCTAC”, 0.198; with “GATGATTGTTCTCCCAGCTGATGAATTAGAAGGCTCGAGTAAACAAATTTTCCTAATCTTTCTGTTCAAGCGCCATCTAC”, 0.318.
As for “GATGATTGTTCTCCCAGCTGATGAATTATAAGCTTCGAGTAAACAAATTTTCCTAATCTTTCTGTTCAAGCGCCATCTAC”, the binding signal (RPM ratio (pull-down/input)) was found to be 0.414.
For “GATGATTGTTCTCCCAGCTGATGAATTCCTTGGTTCGAGTAAACAAATTTTCCTAATCTTTCTGTTCAAGCGCCATCTAC”, the binding signal (RPM ratio (pull-down/input)) was found to be 0.28.
In the case of “GATGATTGTTCTCCCAGCTGATGAATTAGTGCTATCGAGTAAACAAATTTTCCTAATCTTTCTGTTCAAGCGCCATCTAC”, the binding signal (RPM ratio (pull-down/input)) stood at 1.16.
To “GATGATTGTTCTCCCAGCTGATGAATTACCTGAGTCGAGTAAACAAATTTTCCTAATCTTTCTGTTCAAGCGCCATCTAC” belongs 0.173; to “GATGATTGTTCTCCCAGCTGATGAATTGGACTATTCGAGTAAACAAATTTTCCTAATCTTTCTGTTCAAGCGCCATCTAC”, 0.406.
With “GATGATTGTTCTCCCAGCTGATGAATTTAAACAGTCGAGTAAACAAATTTTCCTAATCTTTCTGTTCAAGCGCCATCTAC” the figure was 0.398.
To “GATGATTGTTCTCCCAGCTGATGAATTTGTTACGTCGAGTAAACAAATTTTCCTAATCTTTCTGTTCAAGCGCCATCTAC” belongs 4.22; to “GATGATTGTTCTCCCAGCTGATGAATTCGAACGATCGAGTAAACAAATTTTCCTAATCTTTCTGTTCAAGCGCCATCTAC”, 0.255.
Take “GATGATTGTTCTCCCAGCTGATGAATTAATCCCTTCGAGTAAACAAATTTTCCTAATCTTTCTGTTCAAGCGCCATCTAC”: the binding signal (RPM ratio (pull-down/input)) is 0.316.
With “GATGATTGTTCTCCCAGCTGATGAATTGTGCGAATCGAGTAAACAAATTTTCCTAATCTTTCTGTTCAAGCGCCATCTAC”, the binding signal (RPM ratio (pull-down/input)) came out at 0.484.
To “GATGATTGTTCTCCCAGCTGATGAATTCTACGAGTCGAGTAAACAAATTTTCCTAATCTTTCTGTTCAAGCGCCATCTAC” belongs 0.243; to “GATGATTGTTCTCCCAGCTGATGAATTAGAGGCCTCGAGTAAACAAATTTTCCTAATCTTTCTGTTCAAGCGCCATCTAC”, 0.756; to “GATGATTGTTCTCCCAGCTGATGAATTTGTATCATCGAGTAAACAAATTTTCCTAATCTTTCTGTTCAAGCGCCATCTAC”, 5.48.
With “GATGATTGTTCTCCCAGCTGATGAATTGTATATTTCGAGTAAACAAATTTTCCTAATCTTTCTGTTCAAGCGCCATCTAC” the figure was 3.17; with “GATGATTGTTCTCCCAGCTGATGAATTTCTGTCATCGAGTAAACAAATTTTCCTAATCTTTCTGTTCAAGCGCCATCTAC”, 0.504; with “GATGATTGTTCTCCCAGCTGATGAATTTACATACTCGAGTAAACAAATTTTCCTAATCTTTCTGTTCAAGCGCCATCTAC”, 0.936.
With “GATGATTGTTCTCCCAGCTGATGAATTCGTGTCCTCGAGTAAACAAATTTTCCTAATCTTTCTGTTCAAGCGCCATCTAC” the figure was 1.25; with “GATGATTGTTCTCCCAGCTGATGAATTGTTTAATTCGAGTAAACAAATTTTCCTAATCTTTCTGTTCAAGCGCCATCTAC”, 1.2.
“GATGATTGTTCTCCCAGCTGATGAATTTATTGTTTCGAGTAAACAAATTTTCCTAATCTTTCTGTTCAAGCGCCATCTAC”: the binding signal (RPM ratio (pull-down/input)) amounted to 6.4.
To “GATGATTGTTCTCCCAGCTGATGAATTCTATCGGTCGAGTAAACAAATTTTCCTAATCTTTCTGTTCAAGCGCCATCTAC” belongs 0.346; to “GATGATTGTTCTCCCAGCTGATGAATTGTTGCGATCGAGTAAACAAATTTTCCTAATCTTTCTGTTCAAGCGCCATCTAC”, 2.69.
As to “GATGATTGTTCTCCCAGCTGATGAATTCGGTATTTCGAGTAAACAAATTTTCCTAATCTTTCTGTTCAAGCGCCATCTAC”, the binding signal (RPM ratio (pull-down/input)) was found to be 2.2.
To “GATGATTGTTCTCCCAGCTGATGAATTCCCCGACTCGAGTAAACAAATTTTCCTAATCTTTCTGTTCAAGCGCCATCTAC” belongs 0.178; to “GATGATTGTTCTCCCAGCTGATGAATTGGAGCCCTCGAGTAAACAAATTTTCCTAATCTTTCTGTTCAAGCGCCATCTAC”, 0.358.
To “GATGATTGTTCTCCCAGCTGATGAATTCTATAAATCGAGTAAACAAATTTTCCTAATCTTTCTGTTCAAGCGCCATCTAC” belongs 0.267; to “GATGATTGTTCTCCCAGCTGATGAATTTCCAAAGTCGAGTAAACAAATTTTCCTAATCTTTCTGTTCAAGCGCCATCTAC”, 0.159; to “GATGATTGTTCTCCCAGCTGATGAATTGACATGTTCGAGTAAACAAATTTTCCTAATCTTTCTGTTCAAGCGCCATCTAC”, 0.701.
With “GATGATTGTTCTCCCAGCTGATGAATTAAGGGAGTCGAGTAAACAAATTTTCCTAATCTTTCTGTTCAAGCGCCATCTAC” the figure was 0.249.
With “GATGATTGTTCTCCCAGCTGATGAATTGAACACTTCGAGTAAACAAATTTTCCTAATCTTTCTGTTCAAGCGCCATCTAC”, the binding signal (RPM ratio (pull-down/input)) turned out to be 0.455.
To “GATGATTGTTCTCCCAGCTGATGAATTTTAGTTATCGAGTAAACAAATTTTCCTAATCTTTCTGTTCAAGCGCCATCTAC” belongs 1.33; to “GATGATTGTTCTCCCAGCTGATGAATTGAAGGACTCGAGTAAACAAATTTTCCTAATCTTTCTGTTCAAGCGCCATCTAC”, 0.282; to “GATGATTGTTCTCCCAGCTGATGAATTATTCCGATCGAGTAAACAAATTTTCCTAATCTTTCTGTTCAAGCGCCATCTAC”, 0.214.
To “GATGATTGTTCTCCCAGCTGATGAATTTAGAGTCTCGAGTAAACAAATTTTCCTAATCTTTCTGTTCAAGCGCCATCTAC” belongs 1.35; to “GATGATTGTTCTCCCAGCTGATGAATTTCAGAGCTCGAGTAAACAAATTTTCCTAATCTTTCTGTTCAAGCGCCATCTAC”, 0.211.
For “GATGATTGTTCTCCCAGCTGATGAATTACTATCGTCGAGTAAACAAATTTTCCTAATCTTTCTGTTCAAGCGCCATCTAC”, the binding signal (RPM ratio (pull-down/input)) was 0.509.
For the sequence “GATGATTGTTCTCCCAGCTGATGAATTTGCAGAGTCGAGTAAACAAATTTTCCTAATCTTTCTGTTCAAGCGCCATCTAC”, the binding signal (RPM ratio (pull-down/input)) came to 0.324.
To “GATGATTGTTCTCCCAGCTGATGAATTTGCTGGATCGAGTAAACAAATTTTCCTAATCTTTCTGTTCAAGCGCCATCTAC” belongs 0.64.
With “GATGATTGTTCTCCCAGCTGATGAATTCCGACGATCGAGTAAACAAATTTTCCTAATCTTTCTGTTCAAGCGCCATCTAC” the figure was 0.285; with “GATGATTGTTCTCCCAGCTGATGAATTTTTATCTTCGAGTAAACAAATTTTCCTAATCTTTCTGTTCAAGCGCCATCTAC”, 0.326.
Take “GATGATTGTTCTCCCAGCTGATGAATTTGCTGGCTCGAGTAAACAAATTTTCCTAATCTTTCTGTTCAAGCGCCATCTAC”: the binding signal (RPM ratio (pull-down/input)) was 3.
To “GATGATTGTTCTCCCAGCTGATGAATTAGCGTAATCGAGTAAACAAATTTTCCTAATCTTTCTGTTCAAGCGCCATCTAC” belongs 0.828; to “GATGATTGTTCTCCCAGCTGATGAATTTAACTTTTCGAGTAAACAAATTTTCCTAATCTTTCTGTTCAAGCGCCATCTAC”, 0.292.
To “GATGATTGTTCTCCCAGCTGATGAATTCTCCGTCTCGAGTAAACAAATTTTCCTAATCTTTCTGTTCAAGCGCCATCTAC” belongs 0.248.
Consider “GATGATTGTTCTCCCAGCTGATGAATTCGCTCAATCGAGTAAACAAATTTTCCTAATCTTTCTGTTCAAGCGCCATCTAC”, for which the binding signal (RPM ratio (pull-down/input)) came to 0.255.
With “GATGATTGTTCTCCCAGCTGATGAATTGGTCTCATCGAGTAAACAAATTTTCCTAATCTTTCTGTTCAAGCGCCATCTAC” the figure was 0.414; with “GATGATTGTTCTCCCAGCTGATGAATTACCTACGTCGAGTAAACAAATTTTCCTAATCTTTCTGTTCAAGCGCCATCTAC”, 0.303; with “GATGATTGTTCTCCCAGCTGATGAATTAAAACGATCGAGTAAACAAATTTTCCTAATCTTTCTGTTCAAGCGCCATCTAC”, 0.283.
With “GATGATTGTTCTCCCAGCTGATGAATTACTCTTGTCGAGTAAACAAATTTTCCTAATCTTTCTGTTCAAGCGCCATCTAC” the figure was 0.317; with “GATGATTGTTCTCCCAGCTGATGAATTTCATCATTCGAGTAAACAAATTTTCCTAATCTTTCTGTTCAAGCGCCATCTAC”, 0.871.
To “GATGATTGTTCTCCCAGCTGATGAATTGCAAAGGTCGAGTAAACAAATTTTCCTAATCTTTCTGTTCAAGCGCCATCTAC” belongs 0.459; to “GATGATTGTTCTCCCAGCTGATGAATTCCCTGTCTCGAGTAAACAAATTTTCCTAATCTTTCTGTTCAAGCGCCATCTAC”, 0.253; to “GATGATTGTTCTCCCAGCTGATGAATTGGTCTTATCGAGTAAACAAATTTTCCTAATCTTTCTGTTCAAGCGCCATCTAC”, 0.456.
Turning to “GATGATTGTTCTCCCAGCTGATGAATTGTCGCCCTCGAGTAAACAAATTTTCCTAATCTTTCTGTTCAAGCGCCATCTAC”, the binding signal (RPM ratio (pull-down/input)) came out at 0.683.
To “GATGATTGTTCTCCCAGCTGATGAATTACCCTGGTCGAGTAAACAAATTTTCCTAATCTTTCTGTTCAAGCGCCATCTAC” belongs 0.217.
